Data taken from PubChem BioAssay AID624417 (National Center for Advancing Translational Sciences (NCATS), 2012).
In all, about 410,000 compounds went through this assay and about 6,400 (1.6%) were called active. This list was built around the results that the source calls inconclusive (neither active nor inactive); the mix of calls is not that of the screen. Calls come from the whole dose curve; as a rule, active = well fitted inhibition curve with a large enough effect; inconclusive = small, poorly fitted or top-dose-only effect; inactive = no such curve, though single readings can be large or run the other way. No potency is given beside an inconclusive call; the fits are too rough.

molecular target: Glucagon-like peptide 1 receptor (Homo sapiens) (UniProt P43220); test: qHTS of GLP-1 Receptor Inverse Agonists (Inhibition Mode); details: HEK293 GLP-1R CRE-luciferase, luminescence, 24 h, GLP-1R form is constitutively active; series mostly up to 38.3 µM; note: nearly all actives have a fitted effect of over 55% in size
Sequence of UniProt P43220 (P43220 whole entry, looked up): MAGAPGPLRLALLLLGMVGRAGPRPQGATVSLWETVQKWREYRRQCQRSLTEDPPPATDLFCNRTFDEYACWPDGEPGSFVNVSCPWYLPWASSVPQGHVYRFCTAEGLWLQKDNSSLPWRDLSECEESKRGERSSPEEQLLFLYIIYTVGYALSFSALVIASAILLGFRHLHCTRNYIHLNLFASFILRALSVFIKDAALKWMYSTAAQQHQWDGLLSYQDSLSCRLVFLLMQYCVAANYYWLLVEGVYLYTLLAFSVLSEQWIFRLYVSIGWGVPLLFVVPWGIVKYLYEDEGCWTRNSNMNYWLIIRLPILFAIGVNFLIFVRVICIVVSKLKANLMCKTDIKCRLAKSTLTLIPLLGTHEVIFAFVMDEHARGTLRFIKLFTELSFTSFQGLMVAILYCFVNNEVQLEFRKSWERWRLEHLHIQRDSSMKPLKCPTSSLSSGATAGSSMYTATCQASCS
Method in brief: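 Inverse agonism was detected as reduced cAMP-driven luciferase luminescence after 24 h compound treatment. The cells were HEK293 clones expressing constitutively active human GLP-1R with the reporter. Reporter-only and GPR119 cell lines served as counterscreen controls.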
Potency is the fitted concentration of half-maximal effect; tags give direction and shape of the fitted curve.

SMILES	Potency
COc1cc(/C=C(\C#N)c2nc3ccccc3[nH]2)ccc1OCc1cccc(C(F)(F)F)c1	inconclusive [inhibitor, partial curve, poor fit]
CCCc1cnc2c(c1SCC(=O)Nc1ccc(C)c(Cl)c1)c(=O)n(C)c(=O)n2C	inactive
CCOC(=O)c1c(C)sc2c1N(C(=O)CN1CCOCC1)c1cc(Cl)ccc1S2	inconclusive [inhibitor, single point]
Cc1ccc(C)c(OCC(=O)N(C)CC(=O)Nc2ccc(Cl)c(C(F)(F)F)c2)c1	inconclusive [inhibitor, full curve]
CCOc1ccccc1NC(=O)c1ccc(F)c(S(=O)(=O)NCc2ccc3c(c2)OCO3)c1	inconclusive [inhibitor, single point]
CS(=O)(=O)N(CC(=O)Nc1ccccc1Cl)c1ccc(Cl)cc1	inconclusive [inhibitor, single point]
Cc1cccc(C(=O)N2CCc3c([nH]c4ccccc34)C2CC(C)C)n1 (stereo unspecified)	inconclusive [inhibitor, partial curve, poor fit]
CCCCNC(=O)CCCn1c(=O)c2ccccc2n(CC(=O)Nc2ccccc2OCC)c1=O	inactive
O=C(CSc1nc2ccc(Cl)cc2[nH]1)Nc1ccc2c(c1)CCC2	inconclusive [inhibitor, single point]
COCCN(Cc1cc2cc3c(cc2nc1Cl)OCO3)C(=O)c1cccc(C)c1	inconclusive [inhibitor, partial curve, poor fit]
COC(=O)C1(C(=O)OC)C[C@H](/C=C/c2ccccc2)N(Cc2ccccc2OC)[C@@H]1c1ccc(F)cc1	inactive
O=C(c1cccc(Cl)c1)N1CCCc2ccccc21	inconclusive [inhibitor, single point]
O=C(CCC1CCCN(Cc2ccc3c(c2)CCO3)C1)NCc1ccc(F)c(F)c1 (stereo unspecified)	inconclusive [inhibitor, single point]
CN1CCCC2(CCCN(Cc3nc(Cc4cccc(C(F)(F)F)c4)no3)C2)C1 (stereo unspecified)	inconclusive [inhibitor, full curve, poor fit]
CCCOc1ccc(C(=O)Nc2ccc(S(=O)(=O)N3C[C@@H]4C[C@@H](C3)c3cccc(=O)n3C4)cc2)cc1	inconclusive [inhibitor, partial curve, poor fit]
Cc1nc2ccc(NC(=S)N3CCCC3)cc2nc1C	inactive
CSc1sc(C(=O)N(C)C)c2c1S(=O)(=O)N(C)c1ccccc1-2	inconclusive [inhibitor, partial curve]
CCOc1ccccc1NC(=O)CSc1nnc(CNC(=O)COc2ccc(Cl)cc2)o1	inconclusive [inhibitor, partial curve, poor fit]
Cc1nn(-c2ccc(F)cc2)c(C)c1NS(=O)(=O)c1ccc(Cl)cc1	inconclusive [inhibitor, partial curve, poor fit]
OCCC1CN(Cc2cccn2-c2cccnc2)CCN1Cc1ccccc1 (stereo unspecified)	inconclusive [inhibitor, partial curve, poor fit]
O=C(Cc1c(F)cccc1Cl)Nc1ncc([N+](=O)[O-])s1	inconclusive [inhibitor, partial curve, poor fit]

SMILES	Potency
CCOc1ccc(S(=O)(=O)N2CCN(C(=O)c3oc4ccc(OC)cc4c3C)CC2)cc1	inconclusive [inhibitor, partial curve, poor fit]
CC(NC(=O)c1ccccc1)C(=O)NC1CCCc2ccccc21 (stereo unspecified)	inconclusive [inhibitor, partial curve]
CCc1ccc(-c2nc(CS(=O)CC(=O)NCc3ccc4c(c3)OCO4)c(C)o2)cc1 (stereo unspecified)	inconclusive [inhibitor, single point]
COc1ccc(NC(=O)CO/N=C/C(=O)Nc2ccccc2C)c([N+](=O)[O-])c1	inconclusive [inhibitor, single point]
CC(/C=N/NC(=O)Cn1cnc2ccccc21)=C\c1ccccc1	inconclusive [inhibitor, single point]
O=C(c1ccccc1F)N1N=C(C(F)(F)F)CC1(O)c1ccccc1 (stereo unspecified)	inconclusive [inhibitor, partial curve, poor fit]
CC(C)c1nc2sc3c(SCC(=O)NCc4ccco4)ncnc3c2c2c1CCC2	inactive
Cn1c(=O)c2c(ncn2CC(=O)Nc2cccc(Cl)c2Cl)n(C)c1=O	inactive
CC(C)(C)c1ccc(N=C2SCC(=O)N2Cc2cccs2)cc1	inconclusive [inhibitor, single point]
COC(=O)[C@@]1(Cc2ccc(F)cc2)[C@H]2c3cc(C(=O)N(C)C)n(Cc4ccc(C)c(F)c4F)c3C[C@H]2CN1C(=O)c1ccccc1	inconclusive [inhibitor, single point]
NNC(=O)c1oc2ccccc2c1-n1cccc1	inconclusive [inhibitor, single point]
Cc1ccc(N2CCN(S(=O)(=O)c3ccc(F)c(C)c3)CC2)c(C)c1	inconclusive [inhibitor, single point]
CN(C(=O)Cn1cc(S(=O)(=O)Cc2ccccc2Cl)c2ccccc21)c1ccccc1	inconclusive [inhibitor, single point]
COc1cc(NC(=S)N2CCN(C(c3ccccc3)c3ccccc3)CC2)cc(OC)c1	inconclusive [inhibitor, partial curve, poor fit]
COc1ccc2c(CCNC(=O)c3ccc([N+](=O)[O-])cc3)c[nH]c2c1	inconclusive [inhibitor, partial curve, poor fit]
CC(NC(=O)Cn1c(=O)oc2cc(S(=O)(=O)NCc3ccccc3)ccc21)c1ccccc1 (stereo unspecified)	inconclusive [inhibitor, partial curve, poor fit]
COc1cccc(N2CCN(C(=O)c3cc4c(s3)CCCCC4)CC2)c1	inconclusive [inhibitor, single point]
O=C(CCCc1ccccc1)NCCc1ccc(F)cc1	inconclusive [inhibitor, single point]
O=C(NC(c1ccccc1)c1ccc2ccccc2n1)C1CCN(CCOc2ccc(Cl)cc2)CC1 (stereo unspecified)	active: 11.2 µM
Cc1nc2scc(C)n2c(=O)c1S(=O)(=O)NC(C)c1ccccc1 (stereo unspecified)	inconclusive [inhibitor, single point]
Cc1c(C(=O)Oc2cccc3cccnc23)cccc1[N+](=O)[O-]	inactive

SMILES	Potency
Cc1ccc2c(c1)N(C(=O)CCC(=O)NCc1ccccc1Cl)CC(C)O2 (stereo unspecified)	inconclusive [inhibitor, partial curve, poor fit]
CCOC(=O)Cn1c(C)nc2c(C(=O)OCC)sc(C)c2c1=O	inactive
CNC(=S)NC1CC2CCCC(C1)N2Cc1ccco1 (stereo unspecified)	inactive
Cc1nn(-c2ccccc2)c(Cl)c1/C=C1\SC(=S)N(CCCCCC(=O)O)C1=O	inconclusive [inhibitor, single point]
CCOC(=O)c1nnn(-c2nonc2N)c1CSc1ccccc1	inactive
CCC1Oc2ccccc2N(CC(=O)NCCC2=CCCCC2)C1=O (stereo unspecified)	inconclusive [inhibitor, partial curve, poor fit]
CN1CCc2c(sc3c2C(=O)NC(c2cn(Cc4ccccc4)c4ccccc24)N3)C1 (stereo unspecified)	active: 3.98 µM
CC(NC(=S)Nc1ccc(F)cc1)c1ccccc1 (stereo unspecified)	inconclusive [inhibitor, single point]
COc1cccc(-c2cc(C(F)(F)F)nc(N3CCCCC3)n2)c1	inconclusive [inhibitor, partial curve, poor fit]
CCN(CC)c1ccc2c(C)c(-c3ccc(N)cc3)c(=O)oc2c1	inconclusive [inhibitor, full curve, poor fit]
COc1cccc(C(=O)NCCS(=O)(=O)NCc2cccs2)c1	inconclusive [inhibitor, full curve, poor fit]
Cn1ncc2c(O/N=C(\N)c3ccc(C(F)(F)F)cc3)ncnc21	inconclusive [inhibitor, single point]
Nc1ccc(N2CCN(c3ccc(F)cc3)CC2)cc1	inconclusive [inhibitor, full curve, poor fit]
CCCC(=O)Nc1cc(C)c(NC(=O)C23CC4CC(CC(C4)C2)C3)cn1	inconclusive [inhibitor, single point]
CC[C@]12c3[nH]c4cc(CCC(=O)N(C)C)ccc4c3CCN1C(=O)[C@@H](CC(=O)NC/C=C(\C)CCC=C(C)C)C[C@@H]2C(=O)N1CCN(C(=O)c2ccco2)CC1	inconclusive [inhibitor, single point]
CCn1cc(C(=O)NCc2ccccc2Cl)c(=O)c2cc(S(=O)(=O)N3CCc4ccccc4C3)ccc21	inactive
FC(F)(F)c1cccc(Cn2nnnc2-c2ccc(Cl)cc2)c1	inconclusive [inhibitor, partial curve, poor fit]
Cc1cccc(NC(=S)NNC(=O)c2ccc(O)cc2O)c1C	inconclusive [inhibitor, full curve]
CN(C)c1ccnc(-n2cccc2/C=N/OCc2ccc(F)cc2Cl)c1C#N	inconclusive [inhibitor, single point]
